{"source": "paper PMC4336329", "about": "(PLoS ONE, 2015)", "note": "Out of some 310,000 compounds screened, about 14,000 (4.5%) showed an effect of 50% or more. The effect is printed as a negative number. This is one part of the list.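 Also: peak tail current of the secondary pulse compared with the same well before compound.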"}
{"molecular_target": "human ether-à-go-go-related gene (hERG) potassium channel (human, UniProt Q12809)", "sequence (Q12809 whole entry, looked up)": "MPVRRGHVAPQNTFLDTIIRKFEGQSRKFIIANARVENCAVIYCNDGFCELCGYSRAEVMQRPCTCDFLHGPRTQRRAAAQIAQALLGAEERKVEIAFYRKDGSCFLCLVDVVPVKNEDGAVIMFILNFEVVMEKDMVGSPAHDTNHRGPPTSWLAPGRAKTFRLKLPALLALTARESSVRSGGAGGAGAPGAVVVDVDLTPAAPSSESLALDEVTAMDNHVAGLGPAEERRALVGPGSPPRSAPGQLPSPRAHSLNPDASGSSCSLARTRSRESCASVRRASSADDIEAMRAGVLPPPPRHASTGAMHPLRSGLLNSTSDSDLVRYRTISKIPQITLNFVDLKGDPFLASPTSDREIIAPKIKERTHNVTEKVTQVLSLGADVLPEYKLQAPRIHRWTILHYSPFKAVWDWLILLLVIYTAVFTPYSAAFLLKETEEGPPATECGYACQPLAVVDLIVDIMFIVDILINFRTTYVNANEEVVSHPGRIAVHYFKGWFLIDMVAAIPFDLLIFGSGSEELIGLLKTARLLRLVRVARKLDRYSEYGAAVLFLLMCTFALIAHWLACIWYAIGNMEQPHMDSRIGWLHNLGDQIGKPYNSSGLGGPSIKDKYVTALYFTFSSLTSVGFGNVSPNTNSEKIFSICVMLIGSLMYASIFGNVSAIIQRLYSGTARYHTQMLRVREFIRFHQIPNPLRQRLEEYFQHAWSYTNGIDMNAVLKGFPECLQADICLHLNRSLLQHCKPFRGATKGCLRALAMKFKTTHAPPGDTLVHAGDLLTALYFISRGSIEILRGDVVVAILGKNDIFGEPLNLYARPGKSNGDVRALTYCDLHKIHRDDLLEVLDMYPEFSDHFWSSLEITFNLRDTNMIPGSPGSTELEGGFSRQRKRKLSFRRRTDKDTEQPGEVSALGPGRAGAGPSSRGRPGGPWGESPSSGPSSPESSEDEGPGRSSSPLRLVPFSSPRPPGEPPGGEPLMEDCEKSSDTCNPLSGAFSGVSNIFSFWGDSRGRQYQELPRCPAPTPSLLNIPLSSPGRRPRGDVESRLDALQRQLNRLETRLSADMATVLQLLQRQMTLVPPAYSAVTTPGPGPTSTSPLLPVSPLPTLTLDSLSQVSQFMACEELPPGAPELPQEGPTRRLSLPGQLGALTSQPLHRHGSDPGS", "test": "primary screen, population patch clamp on CHO cells stably expressing hERG", "units": {"hERG current change (%, negative = inhibition) at 10uM": "%"}}
{"smiles": "O=C(Nc1cccc(-c2cccc(F)c2)c1)C1CCN(Cc2ccco2)CC1", "hERG current change (%, negative = inhibition) at 10uM": -67.5}
{"smiles": "Cc1cc(O)c(/C=N/Nc2ccccc2)c(=O)o1", "hERG current change (%, negative = inhibition) at 10uM": -0.994}
{"smiles": "Br.CCOc1ccc2c(c1)nc(SCC(=O)c1cccs1)n2C", "hERG current change (%, negative = inhibition) at 10uM": -5.97}
{"smiles": "CNc1nccc(-c2ccc(Cl)cc2)c1C#N", "hERG current change (%, negative = inhibition) at 10uM": -6.14}
{"smiles": "CCOC(=O)Cc1csc(NC(=O)CSc2nnc(C(C)C)n2C)n1", "hERG current change (%, negative = inhibition) at 10uM": -1.3}
{"smiles": "CSc1ccc(CN2CCN(Cc3ccccc3Cl)CC2)cc1", "hERG current change (%, negative = inhibition) at 10uM": -26.8}
{"smiles": "CN1C(=O)/C(=C\\c2cc(N=Nc3ccccc3)ccc2O)SC1=S", "hERG current change (%, negative = inhibition) at 10uM": 8.36}
{"smiles": "CCCCCCOC(=O)c1ccc(NC(=O)c2cc(OC)c(OC)c(OC)c2Br)cc1", "hERG current change (%, negative = inhibition) at 10uM": 5.84}
{"smiles": "c1ccc2c(c1)-c1cccc3cccc-2c13", "hERG current change (%, negative = inhibition) at 10uM": 24.4}
{"smiles": "O=C(OCc1nnc(-c2ccccc2)o1)c1cc(=O)c2ccccc2o1", "hERG current change (%, negative = inhibition) at 10uM": 14.2}
{"smiles": "Cc1nn(CCCC(=O)Nc2cc(Oc3ccc(F)cc3)cc([N+](=O)[O-])c2)c(C)c1[N+](=O)[O-]", "hERG current change (%, negative = inhibition) at 10uM": -7.37}
{"smiles": "Cc1cc(S(=O)(=O)N2CCCC2)ccc1OCC(=O)NCc1ccco1", "hERG current change (%, negative = inhibition) at 10uM": -3.7}
{"smiles": "Cc1ccc(S(=O)(=O)NC2=NCN(CCc3ccccc3)CN2)cc1", "hERG current change (%, negative = inhibition) at 10uM": 9.57}
{"smiles": "[O-][n+]1ccc(C(O)c2ccccc2)cc1", "note": "(stereo not shown)", "hERG current change (%, negative = inhibition) at 10uM": 28.6}
{"smiles": "COc1ccc(N2C3=C(C(=O)CC(C)(C)C3)C(c3ccccc3OC)C3=C2CC(C)(C)CC3=O)cc1", "hERG current change (%, negative = inhibition) at 10uM": -18.9}
{"smiles": "CC(=O)c1ccccc1OCC(O)CNC1CCCC1.Cl", "note": "(stereo not shown)", "hERG current change (%, negative = inhibition) at 10uM": 9.51}
{"smiles": "CCNC(=O)NC(=O)C(C)OC(=O)c1c(C)nn(Cc2ccccc2Cl)c1Cl", "note": "(stereo not shown)", "hERG current change (%, negative = inhibition) at 10uM": -9.3}
{"smiles": "O=C(CSc1nc2nn(-c3ccccc3)c(=O)c-2c2n1CCCCC2)Nc1ccc(F)cc1F", "hERG current change (%, negative = inhibition) at 10uM": -63.2}
{"smiles": "c1ccc2c(Nc3ccc4c(c3)OCCO4)c3c(nc2c1)CCCC3", "hERG current change (%, negative = inhibition) at 10uM": -92.4}
{"smiles": "COc1ccccc1C(=O)Nc1ccc2c(c1)n(C)c(=O)n2C", "hERG current change (%, negative = inhibition) at 10uM": 5.85}
{"smiles": "O=C(NC(=S)Nc1ccc2cn[nH]c2c1)c1ccccc1", "hERG current change (%, negative = inhibition) at 10uM": -2.32}
{"smiles": "COc1ccc(C)cc1NC(=O)NC1CCN(Cc2ccccc2)CC1", "hERG current change (%, negative = inhibition) at 10uM": -31.4}
{"smiles": "Cn1c(=O)c2c(nc(Cc3ccc(N)cc3)n2C)n(C)c1=O", "hERG current change (%, negative = inhibition) at 10uM": 16.3}
{"smiles": "CCc1ccc2[nH]c3nc(N/N=C/c4ccc(O)cc4O)nnc3c2c1", "hERG current change (%, negative = inhibition) at 10uM": 3.31}
{"smiles": "Cc1cc(N2CCCC(C(=O)Nc3ccc4c(c3)CCC4)C2)n2ncnc2n1", "note": "(stereo not shown)", "hERG current change (%, negative = inhibition) at 10uM": -57.2}
